Data as given in the antibiotic and cytotoxicity screens of Wong et al. (2023).
This is one part of the list.

Assays:
[1] = tested on: HSkMC (human skeletal muscle cells); assay: cytotoxicity call (relative viability < 0.9); settings: 10 µM
[2] = tested on: HepG2; assay: cytotoxicity call (relative viability < 0.9); settings: 10 µM
[3] = tested on: S. aureus RN4220; assay: growth inhibition call (relative growth <= 0.2); settings: 50 µM

Row | SMILES | cytotoxicity call [1] | cytotoxicity call [2] | growth inhibition call [3]
1 | C[C@H](CO)N1C[C@H](C)[C@H](CN(C)S(=O)(=O)c2cn(C)cn2)Oc2ccc(NS(=O)(=O)c3cccs3)cc2C1=O | inactive | inactive | inactive
2 | C[C@H](CO)N1C[C@H](C)[C@@H](CN(C)C(=O)Nc2ccc(F)cc2)Oc2ccc(NS(=O)(=O)c3cn(C)cn3)cc2C1=O | inactive | inactive | inactive
3 | O=C(NCCN1CCOCC1)c1ccc(Cl)c(S(=O)(=O)N2CCOCC2)c1 | inactive | inactive | inactive
4 | COc1ccc(NC(=O)N(C)C[C@@H]2Oc3cc(C#CCN(C)C)ccc3S(=O)(=O)N([C@@H](C)CO)C[C@H]2C)cc1 | inactive | inactive | inactive
5 | Cn1cnc(CCNC(=O)C[C@@H]2CC[C@@H]3[C@H](COC[C@H](O)CN3C(=O)C3CC3)O2)c1 | inactive | inactive | inactive
6 | O=C(Nc1ccc(-c2nc3cc(NC(=O)c4ccccc4Cl)ccc3o2)cc1)c1ccccc1Cl | inactive | active | inactive
7 | Cc1noc(C)c1NC(=O)Nc1ccc2c(c1)C(=O)N([C@H](C)CO)C[C@@H](C)[C@H](CN(C)S(=O)(=O)c1cn(C)cn1)O2 | inactive | inactive | inactive
8 | Cc1ccc(S(=O)(=O)N(C)C[C@@H]2Oc3ccc(NS(C)(=O)=O)cc3C(=O)N([C@H](C)CO)C[C@H]2C)cc1 | inactive | inactive | inactive
9 | Cc1noc(C)c1S(=O)(=O)Nc1ccc2c(c1)C(=O)N([C@H](C)CO)C[C@H](C)[C@@H](CN(C)Cc1ccc(C(=O)Nc3ccccc3N)cc1)OCCCC[C@@H](C)O2 | inactive | active | inactive
10 | COc1ccc(CN(C)C[C@@H]2OCCCC[C@H](C)Oc3ccc(NC(=O)NC4CCCCC4)cc3C(=O)N([C@@H](C)CO)C[C@@H]2C)cc1 | inactive | active | inactive
11 | C[C@@H]1CN([C@H](C)CO)C(=O)c2cc(NC(=O)Nc3cccc4ccccc34)ccc2O[C@@H](C)CCCCO[C@H]1CN(C)S(=O)(=O)c1cn(C)cn1 | inactive | inactive | inactive
12 | C[C@H](CO)N1C[C@H](C)[C@@H](CN(C)C(=O)Nc2cccc3ccccc23)OCCCC[C@H](C)Oc2ccc(NC(=O)Nc3ccc(C(F)(F)F)cc3)cc2C1=O | inactive | inactive | inactive
13 | Nc1ccn([C@@H]2O[C@H](CO)[C@H](O)[C@@H]2O)c(=O)n1 | inactive | inactive | inactive
14 | C=CC[C@H](CC(=O)NCCO)C(=O)N[C@H](COC(=O)[C@@H](CC=C)CC(=O)OC(C)(C)C)Cc1ccccc1 | inactive | inactive | inactive
15 | c1ccc2c(c1)Cc1cccnc1-2 | inactive | inactive | inactive
16 | C[C@H](CO)N1C[C@H](C)[C@@H](CN(C)CC2CCCCC2)OCCCC[C@H](C)Oc2ccc(NC(=O)c3ccncc3)cc2C1=O | inactive | inactive | inactive
17 | Cc1ccc(S(=O)(=O)N(C)C[C@@H]2Oc3ccc(NC(=O)CCN4CCOCC4)cc3C(=O)N([C@H](C)CO)C[C@H]2C)cc1 | inactive | inactive | inactive
18 | C[C@@H]1CCCCO[C@@H](CN(C)S(=O)(=O)c2ccccc2)[C@@H](C)CN([C@@H](C)CO)C(=O)c2cc(NC(=O)Nc3ccc(C(F)(F)F)cc3)ccc2O1 | inactive | inactive | inactive
19 | CC(=O)O[C@H]1C[C@@H](OC(C)=O)C(C)(C)[C@@H]2C[C@@H](OC(C)=O)[C@@]3(C)C4=CC(=O)O[C@@H](c5ccoc5)[C@]4(C)CC[C@@H]3[C@@]12C | inactive | inactive | inactive
20 | Cc1csc2sc(/C=N/Cc3cccs3)c(C)c12 | inactive | active | inactive
21 | C[C@@H]1CN([C@H](C)CO)S(=O)(=O)c2ccc(C#CC3CCCCC3)cc2O[C@@H]1CN(C)C(=O)Cc1ccncc1 | inactive | inactive | inactive
22 | C[C@H](CO)N1C[C@H](C)[C@H](CN(C)Cc2ccc(C(=O)Nc3ccccc3N)cc2)Oc2ccc(NC(=O)Nc3ccc(F)cc3)cc2CC1=O | inactive | inactive | inactive
23 | CNC[C@@H]1OCCCC[C@@H](C)Oc2ccc(NC(=O)c3ccncc3)cc2C(=O)N([C@H](C)CO)C[C@@H]1C | inactive | inactive | inactive
24 | COc1ccc2c3c([nH]c2c1)[C@H](CO)N(C[C@]13CN(CC2CCCCC2)C1)S(=O)(=O)c1cn(cn1)C | inactive | inactive | inactive
25 | O=C(O)CCCCCCC(=O)Nc1ccc([C@H]2O[C@@H](CSc3ccncc3)C[C@H](c3ccccc3)O2)cc1 | inactive | inactive | inactive
26 | COc1ccc(NC(=O)N(C)C[C@@H]2OCc3ccccc3-c3c(n(C)c4ccccc34)C(=O)N([C@@H](C)CO)C[C@H]2C)cc1 | inactive | inactive | inactive
27 | COc1ccc(NC(=O)N(C)C[C@@H]2Oc3c(NC(=O)c4cnccn4)cccc3C(=O)N([C@H](C)CO)C[C@H]2C)cc1 | inactive | inactive | inactive

Row | SMILES | cytotoxicity call [1] | cytotoxicity call [2] | growth inhibition call [3]
28 | O=C(Nn1cnnc1)c1ccccc1 | inactive | inactive | inactive
29 | C[C@H](CO)N1C[C@H](C)[C@H](CN(C)C(=O)Nc2ccc3c(c2)OCO3)Oc2ccc(NC(=O)CCCN(C)C)cc2C1=O | inactive | inactive | inactive
30 | C[C@@H]1CCCCO[C@H](CN(C)C(=O)C2CCCCC2)[C@@H](C)CN([C@@H](C)CO)C(=O)c2cc(NC(=O)Cc3ccccc3)ccc2O1 | inactive | inactive | inactive
31 | Cc1noc(C)c1NC(=O)Nc1ccc2c(c1)C(=O)N([C@H](C)CO)C[C@@H](C)[C@H](CN(C)Cc1ccc(C(=O)Nc3ccccc3N)cc1)O2 | inactive | inactive | inactive
32 | CN1CCN(C(=O)[C@H]2C[C@H]3CN(c4ncc(F)cn4)C[C@@H]3N2C)CC1 | inactive | inactive | inactive
33 | C[C@@H]1CN([C@H](C)CO)C(=O)c2cccc(NS(=O)(=O)c3ccccc3)c2O[C@H]1CN(C)S(=O)(=O)c1cn(C)cn1 | inactive | inactive | inactive
34 | C[C@H]1CN([C@@H](C)CO)C(=O)c2cccc(NC(=O)c3cnccn3)c2O[C@H]1CN(C)S(=O)(=O)c1ccc(Cl)cc1 | inactive | inactive | inactive
35 | O=C(C[C@H]1CC[C@@H](NS(=O)(=O)c2ccccc2F)[C@@H](CO)O1)NCCCN1CCOCC1 | inactive | inactive | inactive
36 | C[C@@H]1CCCCO[C@@H](CN(C)S(=O)(=O)c2ccccc2)[C@@H](C)CN([C@@H](C)CO)C(=O)c2cc(NC(=O)NC3CCCCC3)ccc2O1 | inactive | inactive | inactive
37 | CO[C@H]1CC[C@@H]2[C@H]1OCCN2C(=O)N(C)C | inactive | inactive | inactive
38 | C[C@@H]1CN([C@@H](C)CO)C(=O)c2cc(NC(=O)Nc3ccc4c(c3)OCO4)ccc2O[C@@H](C)CCCCO[C@@H]1CN(C)Cc1ccncc1 | inactive | inactive | inactive
39 | CCC(=O)N1Cc2cc(C(=O)Nc3nccs3)nc(-c3cccc(-c4ccccc4OC)c3)c2[C@H]1CCO | active | inactive | inactive
40 | Cc1ccc(S(=O)(=O)Nc2ccc3c(c2)C(=O)N([C@H](C)CO)C[C@H](C)[C@@H](CN(C)C(=O)c2ccccc2)OCCCC[C@@H](C)O3)cc1 | inactive | inactive | inactive
41 | CN1C(C)(C)CCCC1(C)C.O=C(O)C(O)C(O)C(=O)O | inactive | inactive | inactive
42 | C[C@@H](O)C(=O)O.N | inactive | inactive | inactive
43 | CC(C)N1C[C@H](C)[C@@H](CN(C)Cc2ccc(Oc3ccccc3)cc2)Oc2c(NC(=O)c3ccccc3)cccc2C1=O | inactive | active | inactive
44 | C/C=C/c1ccc2c(c1)O[C@H](CN(C)C(=O)c1ccc3c(c1)OCO3)[C@H](C)CN([C@H](C)CO)S2(=O)=O | inactive | inactive | inactive
45 | C[C@H](CO)N1C[C@H](C)[C@H](CN(C)S(=O)(=O)c2ccc(F)cc2)Oc2cc(C3=CCCC3)ccc2S1(=O)=O | inactive | inactive | inactive
46 | COC(=O)C[C@H]1O[C@]2(C(=O)N(Cc3ccccc3)c3ccc(I)cc32)[C@@H](C)[C@@H]1[Si](C)(C)c1ccc(OC)cc1 | inactive | inactive | inactive
47 | CC1(C)CC(=O)c2c(C(F)(F)F)nn(-c3ccc(C(N)=O)c(N[C@H]4CC[C@H](OC(=O)CN)CC4)c3)c2C1 | active | active | inactive
48 | CCCNC(=O)N1C[C@@H](O)COC[C@@H]2O[C@H](CC(=O)NCCCN3CCOCC3)CC[C@H]21 | inactive | inactive | inactive
49 | CC(=C/C(=O)O)/C=C/c1ccccc1 | inactive | inactive | inactive
50 | CO[C@H](C(=O)[C@@H](O)[C@@H](C)O)[C@@H]1Cc2cc3cc(O[C@H]4C[C@@H](O[C@H]5C[C@@H](O)[C@H](O)[C@@H](C)O5)[C@@H](O)[C@@H](C)O4)c(C)c(O)c3c(O)c2C(=O)[C@H]1O[C@H]1C[C@@H](O[C@H]2C[C@@H](O[C@H]3C[C@](C)(O)[C@H](O)[C@@H](C)O3)[C@H](O)[C@@H](C)O2)[C@H](O)[C@@H](C)O1 | inactive | active | inactive
51 | COc1ccc(C(=O)N[C@@H](C)c2nnc(SCc3cccc(C(F)(F)F)c3)n2-c2cccc(Cl)c2)cc1 | inactive | inactive | inactive
52 | COc1ccc(NC(=O)N(C)C[C@H]2Oc3ccc(NC(=O)Cn4cnnn4)cc3CC(=O)N([C@H](C)CO)C[C@H]2C)cc1 | inactive | inactive | inactive
53 | COc1ccc(NC(=O)Nc2ccc3c(c2)C(=O)N([C@@H](C)CO)C[C@@H](C)[C@H](CN(C)Cc2ccc(C(=O)O)cc2)OCCCC[C@@H](C)O3)cc1 | inactive | inactive | inactive
54 | CCS(=O)(=O)N1C[C@]2(CCN(CC2)Cc2cccc(c2)OC)c2c([nH]c3cc(ccc23)OC)[C@H]1CO | inactive | inactive | inactive
